Data: the RNAGym collection of RNA variant scans (doi:10.1093/nar/gkz1192)
Read counts are not given, so values of variants with three or more changes are uncertain.

B1: CPEB3 Ribozyme (parent)
chain: UAACAGGGGGCCACAGCAGAAGCGUUCACGUCGCAGCCCCUGUCAGAUUCUGGUGAAUCUGCGAAUUCUGCUGUAUAUCUC

Variants of: B1
Assay: self-cleavage, relative activity (ratio to wild type); higher = more cleavage; in vitro, sequencing
Procedure, shortened: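 After error-prone PCR and barcoding, CPEB3 ribozyme mutant libraries were transcribed with T7 RNA polymerase at 37°C for 5 hours, then given 15 min with DNase I before an EDTA stop, and they cleaved during both steps. Reverse transcription with template switching preceded Illumina sequencing. Relative activity divides a variant's cleaved/total read fraction by the unmutated ribozyme's. At least 5 reads were required per variant, and three batches were averaged.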

Variant | self-cleavage
UAACAGGGGGCUACAGCAGGAGCGUUCACGUAGCAGCCCUUGUGGGAUUCUGGUGAAUCCGCGAAUUCUGCUGUAUAUCUC [C12U A20G C32A C40U C44G A45G U60C] | 0.06
UAACAGGGGGCUACAGCAGGAGCGUCCACGUCGCAGCCCCUGUCAGAUUCUGGUGAAUCUGCGAAUUCUGCAGUAUAUCUC [C12U A20G U26C U72A] | 0.35
UAACAGGGGGCUACAGCAGGAGCGUUCACGUCGCAGCCCCUGUCAGAUUCUGGUGAACCUGCGAAUUCUGCUGUAUAUCUC [C12U A20G U58C] | 0.61
UAACAGGGGGCUACAGCAGGAGCGUUCACGUCGCAGCCCCUGUCAGAUUCUGGUGAAUCCGCGAAUUCUGCUGUAUAUCUC [C12U A20G U60C] | 0.56
UAACAGGGGGCUACAGCAGUAGCGUUCACGUCGCAGCCCCUGUCAGAUUCUGGUGGAUCUGCGAAUUCUGCUGUAUAUCUC [C12U A20U A56G] | 0.39
UAACAGGGGGCUACAGCAGUAGCGUUCACGUCGCAGCCCCUGUCAGAUUCUGGUGGAACUGCGAAUUCUGCUGUAUAUCUC [C12U A20U A56G U58A] | 0.11
UAACAGGGGGCUACAGCAGAGGCGUUCACGUCGCAGCCCCUGUCAGAUUCUGGUGAAUCUGCGGAUUCUGCUGUAUAUCCC [C12U A21G A64G U80C] | 0.75
UAACAGGGGGCUACAGCAGAGGUGUUCACGUCGCAGCUCCUGUCAGAUUCUGGUGGAUCUGCGAAUUCUGCUGUAUAUCUC [C12U A21G C23U C38U A56G] | 0.24
UAACAGGGGGCUACAGCAGAGGCGUUCACGUCGCAGCCCAUGUCAGAUUCUGGUGAAUCUGCGAAUCCUGCUGUAUAUCUC [C12U A21G C40A U67C] | 0.38
UAACAGGGGGCUACAGCAGAGACGUUCACGUCGCAGCCCCUGUCAGAUUCUGGUGUGUCUGCGAAUUCUGCUGUAUAUCUC [C12U A21G G22A A56U A57G] | 0.12
UAACAGGGGGCUACAGCAGAGGCGUUCACGUCGCAGCCCCUGACAGAUUCCGGUGAAUCUGCGAAUUCUGCUGUAUAUCUC [C12U A21G U43A U51C] | 1.04
UAACAGGGGGCUACAGCAGAGGCGUUCACGUCGCAGCCCCUGUCAGAUUCAGGUGAAUCUGCGAAUUCUGCUGUAUAUGUC [C12U A21G U51A C79G] | 1.28
UAACAGGGGGCUACAGCAGAAGCGUUCGCGUCGCAGCCCCUGUCAGAUUCUGGUGAGCCUGCGAAUUCCGCUGUAUACCAC [C12U A28G A57G U58C U69C U78C U80A] | 0.09
UAACAGGGGGCUACAGCAGAAGCGUUCGCGUCGCAGCCCCUGUCAGAUUCUGGCGAAUCUGCGAACCCUGCUGUAUAUCUC [C12U A28G U54C U66C U67C] | 0.07
UAACAGGGGGCUACAGCAGAAGCGUUCUCGUCGCAGCCCCUGUCAGAUUCUGGUGAAUCUGCGAAUUCUGCCGUAUAUCUC [C12U A28U U72C] | 0.97
UAACAGGGGGCUACAGCAGAAGCGUUCACGUCGCGGCCCCUGUCGGAUUCUGGUGAAUCCGCGAACUCUGCAGUAUCUCUC [C12U A35G A45G U60C U66C U72A A77C] | 0.43
UAACAGGGGGCUACAGCAGAAGCGUUCACGUCGCUGCCCCUGUCAGAUUCUGGUGAAUCUGCGGAUUCUGCUGUAUAUCUC [C12U A35U A64G] | 0.72

Variant | self-cleavage
UAACAGGGGGCUACAGCAGAAGCGUUCACGUCGCUGCCCCUGUCAGAUUCUGGUGAAUCUGCGAAUUCUGCUGUAUAUUUC [C12U A35U C79U] | 1.23
UAACAGGGGGCUACAGCAGAAGCGUUCACGUCGCAGCCCCUGUCGGUUUCUGGUGAAUCUGCGAAUUCUGCUGUAUAUCUC [C12U A45G A47U] | 0.61
UAACAGGGGGCUACAGCAGAAGCGUUCACGUCGCAGCCCCUGUCUGAUUCUGGUGAAUCAGCGAAUUCUGCUGUAUAUCUC [C12U A45U U60A] | 1.24
UAACAGGGGGCUACAGCAGAAGCGUUCACGUCGCAGCCCCUGUCUGAUUCUGGUGAAUCUGCGAAUUCUGCUGUAUAACUC [C12U A45U U78A] | 1.08
UAACAGGGGGCUACAGCAGAAGCGUUCACGUCGCAGCCCCUGUCAGGUUCUGGUGAAUCUGCGAAUUCUGCCGUAUAUCCC [C12U A47G U72C U80C] | 1.31
UAACAGGGGGCUACAGCAGAAGCGUUCACGUCGCAGCCCCUGUCAGAUUCUGGUGGAUCUGCGAAUGUCGCUGUAUAUCUC [C12U A56G U67G C68U U69C] | 0.22
UAACAGGGGGCUACAGCAGAAGCGUUCACGUCGCAGCCCCUGUCAGAUUCUGGUGGAUCUGCGAAUUCAGCCGUAUAUCUC [C12U A56G U69A U72C] | 0.69
UAACAGGGGGCUACAGCAGAAGCGUUCACGUCGCAGCCCCUGUCAGAUUCUGGUGUAUCUGCGCAUUCUGCUGUAUAUCUC [C12U A56U A64C] | 0.16
UAACAGGGGGCUACAGCAGAAGCGUUCACGUCGCAGCCCCUGUCAGAUUCUGGUGAGUCUGCGAAUUCCGCUGUAUAUCUC [C12U A57G U69C] | 1.03
UAACAGGGGGCUACAGCAGAAGCGUUCACGUCGCAGCCCCUGUCAGAUUCUGGUGAGUCUGCGAAUUCUGCUGUACAUCUC [C12U A57G U76C] | 1.27
UAACAGGGGGCUACAGCAGAAGCGUUCACGUCGCAGCCCCUGUCAGAUUCUGGUGAAUCUGCGGAUUCUGCUGUAUAUCCC [C12U A64G U80C] | 1.15
UAACAGGGGGCUACAGCAGAAGCGUUCACGUCGCAGCCCCUGUCAGAUUCUGGUGAAUCUGCGAUUUCUGCUGCGUAUCUC [C12U A65U U74C A75G] | 0.85
UAACAGGGGGCUAAAGCAGAAGCGUUCACGUCGCAGCCCCCGUCAGAUUCCGGUGAAUCUGCGAAUUCUGCCGUAUAUCUC [C12U C14A U41C U51C U72C] | 1.29
UAACAGGGGGCUAUAGCAGAAGCGUUCACGUCGCAGCCCCUGUCAGAUUCUGGUGAGUCUGCGAAUUACGCUGCAUAUCUC [C12U C14U A57G C68A U69C U74C] | 0.69
UAACAGGGGGCUAUAGCAGAAGCGUUCACGUCGCAGCCCCUGACAGAUUCUGGUGAAUCUGCGAAUUCUGCUGUAUAUCUC [C12U C14U U43A] | 1.15
UAACAGGGGGCUAUAGCAGAAGCGUUCACGUCGCAGCCCCUGCCAGAUUCUGGUGGAUCUGCGAAUUCUGCUGUAUAUCUC [C12U C14U U43C A56G] | 1.05
UAACAGGGGGCUACAGUAGAAGCGUUCACGUCGCAGCCCCUGUCAGAUUCUGGUAAUUCUGCGAAUUCUGCUGUAUACCUC [C12U C17U G55A A57U U78C] | 0.31
